# Experimental data taken from article PMC4336329 (PLoS ONE, 2015).
# The campaign covered roughly 310,000 compounds. About 2,200 (0.71%) showed an effect of 50% or more. Effects have a minus sign here. The list shows a part of the results.
# Biological target: human ether-à-go-go-related gene (hERG) potassium channel (human, UniProt Q12809)
# Assay: primary screen, population patch clamp on CHO cells stably expressing hERG
# Chain of human ether-à-go-go-related gene (hERG) potassium channel (Q12809 whole entry, looked up): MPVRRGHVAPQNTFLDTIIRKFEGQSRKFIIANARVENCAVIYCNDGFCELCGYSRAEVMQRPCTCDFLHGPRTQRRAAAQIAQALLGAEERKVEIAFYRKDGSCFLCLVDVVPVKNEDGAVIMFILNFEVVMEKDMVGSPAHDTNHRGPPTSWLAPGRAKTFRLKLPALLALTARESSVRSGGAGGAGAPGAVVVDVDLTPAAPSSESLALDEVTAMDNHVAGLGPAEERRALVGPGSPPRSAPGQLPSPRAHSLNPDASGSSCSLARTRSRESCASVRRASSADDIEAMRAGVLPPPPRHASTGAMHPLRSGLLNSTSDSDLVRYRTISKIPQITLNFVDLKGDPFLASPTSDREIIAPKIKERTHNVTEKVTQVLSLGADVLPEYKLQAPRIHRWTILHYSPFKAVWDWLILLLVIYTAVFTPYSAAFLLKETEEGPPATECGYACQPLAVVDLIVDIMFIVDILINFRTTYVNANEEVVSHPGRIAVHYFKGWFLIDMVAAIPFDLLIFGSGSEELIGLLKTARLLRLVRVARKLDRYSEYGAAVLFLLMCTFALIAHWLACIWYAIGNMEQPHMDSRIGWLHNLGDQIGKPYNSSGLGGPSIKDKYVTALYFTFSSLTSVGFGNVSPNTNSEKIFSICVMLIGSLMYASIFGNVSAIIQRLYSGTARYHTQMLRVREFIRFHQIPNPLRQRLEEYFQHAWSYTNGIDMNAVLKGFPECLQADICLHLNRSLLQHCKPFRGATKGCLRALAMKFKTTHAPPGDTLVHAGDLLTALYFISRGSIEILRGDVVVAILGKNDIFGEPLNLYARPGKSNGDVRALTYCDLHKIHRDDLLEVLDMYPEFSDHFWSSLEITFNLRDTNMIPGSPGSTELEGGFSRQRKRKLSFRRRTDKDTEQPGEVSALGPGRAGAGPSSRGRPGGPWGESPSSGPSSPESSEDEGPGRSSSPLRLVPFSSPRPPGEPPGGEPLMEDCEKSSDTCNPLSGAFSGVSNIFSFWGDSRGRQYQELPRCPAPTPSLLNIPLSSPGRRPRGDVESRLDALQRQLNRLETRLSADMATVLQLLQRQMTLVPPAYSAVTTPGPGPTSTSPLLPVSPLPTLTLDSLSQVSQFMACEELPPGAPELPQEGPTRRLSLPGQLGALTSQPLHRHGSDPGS
row,SMILES,"hERG current change (%, negative = inhibition) at 1uM [%]"
1,O=C(COC(=O)CNC(=O)c1ccco1)NCCN1C(=O)CSC1=O,10.9
2,NS(=O)(=O)c1ccc(NC(=O)CSC2CCCCC2)cc1,3.32
3,CCCS(=O)(=O)N1CCN(c2cc3c(cc2[N+](=O)[O-])n(C)c(=O)n3C)CC1,-2.36
4,CCOC(=O)[C@@H]1[C@H]2COc3ccccc3[C@H]2N2C(=O)N(c3cccc(F)c3)C(=O)[C@]12C,0.271
5,Cc1ccc(Nc2nc3ccccc3s2)cc1,1.66
6,Cc1oc2ccc(OCc3ccc(F)cc3Cl)cc2c1C(=O)O,15.5
7,COc1cccc(C(=O)OC(C)CN2CCCC2)c1.Cl (centres unmarked),10.5
8,O=C(NNC(=O)c1cccc(Br)c1)C(=O)N1CCCCC1,5.91
9,CC(=O)NC1=NN(C(C)=O)C(c2sccc2C)S1 (centres unmarked),13.6
10,COc1ccc(NCc2cc3cc(OC)ccc3[nH]c2=O)cc1,3.24
11,Cc1cc(=O)[nH]c(SCc2cccc(Br)c2)n1,6.78
12,COc1ccc(S(=O)(=O)N2CCCCCC2)cc1NC(=O)Cc1ccccc1,1.32
13,O[C@@H]1C2CCCC1[C@]1(O)CCCCC1C2 (some centres unmarked),13.5
14,Cc1cccc(NC(=O)c2c(C)nc3ccccn23)c1,3.98
15,CCCCN(c1ccccc1)c1ncnc(N)c1[N+](=O)[O-],12
16,COc1ccc(Cl)cc1CN1CCOCC1.Cl,19.6
17,COc1cccc(C(=O)CSc2nc3cccnc3n2C)c1,8.81
18,CCC(=O)Nc1cccc(NC(=S)NC(=O)c2ccccc2C)c1,5.27
19,CCOc1cc(CNc2ccc(CNc3ncn[nH]3)cc2)ccc1OCc1ccccc1,8.15
20,COc1ccc(CNS(=O)(=O)c2csc(C(N)=O)c2)cc1OC,7.01
21,COC(=O)c1cc(C(=O)N2CCN(c3cccc(C)c3C)CC2)cc([N+](=O)[O-])c1,-8.86
22,Cc1cc(C)c(S(=O)(=O)NCc2cn3c(C)csc3n2)cc1C,-8.49
23,O=C(COC(=O)c1cccc(Cl)c1Cl)NCCN1C(=O)CSC1=O,6.81
24,CCOc1ccccc1NC(=O)CSc1cn[nH]n1,-3.65
25,Cc1ccc(NC(=O)Cn2nnc(C(=O)NCc3ccc4c(c3)OCO4)c2N)cc1,14.2
26,O=C(NNc1ccc(O)cc1)c1ccc(Br)cc1,-1.92
